18 compounds from the supplement of paper PMC4604168 (melanoma cell lines) can be followed below.

Some of the results follow. Many values rest on one well or one pass, so single values are uncertain.
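Note: cells treated in 1,536-well plates, then fixed and DAPI-stained, with nuclei counted from automated high-throughput microscope images.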

For the first assay, the system named is A2058. The assay can be described thus: cell count relative to DMSO control; melanoma cells; higher = more viable cells. The following applies: library dose: standard library concentration; 72 h; first compound 2 µM.
For the compound `Cn1sc(=O)n(Cc2ccccc2)c1=O` + CN1CCN(c2ccc3nc(-c4c(N)c5c(F)cccc5[nH]c4=O)[nH]c3c2)CC1 [Dovitinib] (partner dose 0.5 µM), the cell count was found to be 30.2%. Still for that read-out and setting: under `Cn1sc(=O)n(Cc2ccccc2)c1=O` + COC(=O)c1sccc1S(=O)(=O)Nc1ccc(Nc2ccccc2)cc1OC [GSK0660] (partner dose 5 µM) stands 98.4%; under `Cn1sc(=O)n(Cc2ccccc2)c1=O` + N#Cc1c(O)c2c(-c3ccc(-c4ccccc4O)cc3)csc2[nH]c1=O [A769662] (partner dose 10 µM), 103%. On the same count and under the same terms, under `C[C@@H](N)c1ccc(C(=O)Nc2ccnc3[nH]ccc23)cc1` + Cc1cc(Nc2cc(N3CCN(C)CC3)nc(/C=C/c3ccccc3)n2)n[nH]1 [ENMD2076] (partner dose 0.2 µM) stands 58.1%.

For another assay, the system named is A375. The description is as above. Particulars: library dose: standard library concentration; 72 h; first compound 2 µM.
The compound `Cn1sc(=O)n(Cc2ccccc2)c1=O` + C=CCn1c(=O)c2cnc(Nc3ccc(N4CCN(C)CC4)cc3)nc2n1-c1cccc(C(C)(C)O)n1 [MK1775] (partner dose 0.1 µM) displayed a cell count of 60.5%. The same measure, in the same setting: the result for `C[C@@H](N)c1ccc(C(=O)Nc2ccnc3[nH]ccc23)cc1` + CCN(CC)CCNC(=O)c1c(C)[nH]c(/C=C2\C(=O)Nc3ccc(F)cc32)c1C [sunitinib] (partner dose 2 µM) reads 84.7%; that for `CCCCCCCCCCCCCCCCCCOP(=O)([O-])OC1CC[N+](C)(C)CC1` [Perifosine] + Cn1cc(/C=C2\C(=O)Nc3cccnc32)c2ccccc21 [GW441756] (partner dose 2 µM), 128%. Same read-out and setting: the result for `Cn1sc(=O)n(Cc2ccccc2)c1=O` + COc1cc2ncnc(Nc3ccc(Oc4ccccc4)cc3)c2cc1OC [SrcI1] (partner dose 10 µM) reads 171%; that for `Cn1sc(=O)n(Cc2ccccc2)c1=O` + O=C(O)[C@@H]1[O][Sb](=[O])([O][Sb]2(=[O])[O][C@H]([C@H](O)CO)[C@H](O)[C@H](C(=O)O)[O]2)[O][C@H]([C@H](O)CO)[C@@H]1O [stibogluconate] (partner dose 10 µM), 79.4%.

In the case of `C[C@@H](N)c1ccc(C(=O)Nc2ccnc3[nH]ccc23)cc1` + O=C(O)[C@@H]1[O][Sb](=[O])([O][Sb]2(=[O])[O][C@H]([C@H](O)CO)[C@H](O)[C@H](C(=O)O)[O]2)[O][C@H]([C@H](O)CO)[C@@H]1O [stibogluconate] (partner dose 10 µM), the cell count worked out at 93.3%. Still for that read-out and setting: under `CCCCCCCCCCCCCCCCCCOP(=O)([O-])OC1CC[N+](C)(C)CC1` [Perifosine] + Cc1cc([N+](=O)[O-])ccc1NS(=O)(=O)c1cc(Cl)ccc1Cl [FH535] (partner dose 5 µM) stands 60.2%; under `Cn1sc(=O)n(Cc2ccccc2)c1=O` + CCc1ccc(CCOc2ccc(CC3SC(=O)NC3=O)cc2)nc1 [pioglitazone] (partner dose 10 µM), 120%. Still for that read-out and setting: the result for `CCCCCCCCCCCCCCCCCCOP(=O)([O-])OC1CC[N+](C)(C)CC1` [Perifosine] + Oc1nc(-c2ccc(C(F)(F)F)cc2)nc2c1CSCC2 [XAV939] (partner dose 10 µM) reads 69.9%; that for `CCCCCCCCCCCCCCCCCCOP(=O)([O-])OC1CC[N+](C)(C)CC1` [Perifosine] + Cc1ccc(Nc2nccc(N(C)c3ccc4c(C)n(C)nc4c3)n2)cc1S(N)(=O)=O [Pazopanib] (partner dose 2 µM), 76.4%; that for `CCCCCCCCCCCCCCCCCCOP(=O)([O-])OC1CC[N+](C)(C)CC1` [Perifosine] + c1cc(-c2cnn3cc(-c4ccc(OCCN5CCCCC5)cc4)cnc23)ccn1 [Dorsomorphin] (partner dose 2 µM), 69.6%.

Consider `C[C@@H](N)c1ccc(C(=O)Nc2ccnc3[nH]ccc23)cc1` + COc1cc2ncnc(Nc3ccc(Oc4ccccc4)cc3)c2cc1OC [SrcI1] (partner dose 10 µM), for which the cell count was 87.1%.

Consider `C[C@@H](N)c1ccc(C(=O)Nc2ccnc3[nH]ccc23)cc1` + COCC[n+]1c2c(n(Cc3cnccn3)c1C)C(=O)c1ccccc1C2=O [YM155] (partner dose 0.002 µM), for which the cell count stood at 90.1%. In the case of `CCCCCCCCCCCCCCCCCCOP(=O)([O-])OC1CC[N+](C)(C)CC1` [Perifosine] + O=c1cc(-c2cccc3c2Sc2ccccc2S3)oc(N2CCOCC2)c1 [KU55933] (partner dose 5 µM), the cell count stood at 132%.
